Source: PubChem BioAssay AID1963576 (National Center for Advancing Translational Sciences (NCATS), 2024)
Out of some 46,000 compounds screened, about 60 (0.1%) were called active. Roughly 3% stayed inconclusive and do not appear here. The call rests on the fitted dose curve; in most records, active means well fitted inhibition curve with a large enough effect; inconclusive means small, poorly fitted or top-dose-only effect; inactive means no such curve, though single readings can be large or run the other way. This is one part of the list.

Experiment: Primary qHTS assay for Inhibitors of ovarian cancer metastasis using an organotypic tumor microenvironment (TME) model. Further: nearly all actives have a fitted effect of over 65% in size.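 On activity change, negative = inhibition: plate controls were DMSO wells for no effect and tomatine positive control wells for full effect.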
Details: SKOV3ip1-GFP adhesion/invasion on 3D omental model, fluorescence; series mostly up to 45.8 µM; activity change, negative = inhibition: at the top concentration
Procedure, shortened: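 qHTS, 4-pt dose (0.36-46 umol/L); SKOV3ip1-GFP, 1,200 cells/well, no FBS; primary omental fibroblast/mesothelial co-culture 48 h pre-grown; 2 h RT + 16 h 37 C; PBS wash, 4% PFA; GFP count 488/509 nm.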

Activity change, negative = inhibition, inactive:
COc1ccc(NC(=O)COc2ccc(-c3nn(C)c(=O)c4ccccc34)cc2)cc1 4.13%
CCOc1ccc(OCC)c(NC(=O)c2nnn(CC(=O)Nc3ccc(C)cc3C)c2N)c1 15.3%
CCOc1ccc(C(=O)N2CCC(c3nc4ccccc4o3)CC2)cc1 -9.24%
CSc1cccc(NC(=O)CN2C(=O)COc3ccc(Cl)cc32)c1 9.61%
Cc1cc2n(n1)C(c1cc(C(C)(C)C)c(O)cc1O)Nc1ccccc1-2 (stereo not given) -13.4%
COc1ccc(N(C)C(=O)c2cn(C3CCCCC3)c(=O)c3c2c2ccccc2n3C)cc1 0.411%
CCn1ccc2cc(S(=O)(=O)N3CCCN(C(=O)Nc4cccc(Cl)c4)CC3)ccc21 3.35%
COc1ccccc1NC(=O)C(=O)NCCc1csc(-c2cccc(F)c2)n1 3.12%
CCCCN(CC)CCCNC(=O)CCN1N=C(c2ccc(OC)cc2)CCC1=O -2.43%
CCOC(=O)c1c(S(=O)(=O)N2CCCC(C(=O)Nc3cccc(Cl)c3)C2)c(C)n(C)c1C (stereo not given) 3.3%
CCOc1ccc(CNS(=O)(=O)c2cc3c(cc2C)NC(=O)CO3)cc1OC 7.18%
Cc1cc(N2CCCCC2)nc2ccc(NC(=O)c3cccc(Cl)c3)cc12 -18.7%
Cc1ccc(OCC(=O)Nc2nnc(SCc3cc(=O)c4ccccc4[nH]3)s2)cc1 2.11%
CCOc1ccccc1C(=O)Nc1ccc2nc(N(CC)CC)cc(C)c2c1 -2.3%
COc1ccc(NC(=O)c2cc(C3CC3)nc3c2c(C)nn3-c2ccccc2)cc1 -24.2%
COc1ccc(-n2c(=O)c3c4c(sc3n(Cc3ccc(F)cc3)c2=O)CCCC4)c(OC)c1 3.29%
COc1ccccc1NC(=O)C1=C(C)Nc2ncnn2C1c1ccccc1C(=O)O (stereo not given) 6.69%
COc1ccc(NC(=O)CSC2=Nc3ccccc3C3=NC(CCC(=O)NC4CCCCC4)C(=O)N23)cc1 (stereo not given) 5.93%
CCCS(=O)(=O)N1CC(=O)N(c2ccc(Cl)cc2C)C(C)(C(=O)NC2CCCC2)C1 (stereo not given) 7.3%
O=C(CSCc1ccccc1Cl)N1CCN(c2ccc(Cl)cc2)CC1 -5.42%
CCOC(=O)c1cccc(NC(=O)CCn2c(-c3ccc(F)cc3)cc(C(=O)OCC)c2C)c1 -7.89%
Cc1ccc(C(=O)c2cn(CC(=O)Nc3ccc(C)cc3Cl)c3nc(C)ccc3c2=O)cc1 3.57%
Cc1cccc(NC(=O)N2CC(=O)Nc3sc4c(c3C2c2ccccc2)CCCC4)c1C (stereo not given) -0.425%
CCOC(=O)C1CCN(C(=O)c2ccc(-n3ccc4ccccc43)s2)CC1 4.44%
Cc1cc(C)cc(-n2c(-c3ccccc3)c(C)n3c4c(=O)n(C)c(=O)n(C)c4nc23)c1 0.597%
CCOc1ccccc1OCCCn1c(-c2ccc(Cl)cc2)nc2ccccc2c1=O -15.1%
Cc1ccc(Cl)cc1N1CCN(C(=O)c2ccc3c(c2)N(Cc2ccc(F)cc2)CCS3)CC1 19.8%
CCOc1cc(CNC(=O)c2ccc3c(c2)NC(=O)C2CCCCN32)cc(OCC)c1OCC (stereo not given) 7.89%
CCOC(=O)c1[nH]c(C)c(CCC(=O)Nc2cc(C)ccc2OC)c1C 4.22%
COc1ccc(-c2c3c(=O)n(C)c(=O)n(C)c3c3n2-c2ccccc2NC3c2ccco2)cc1 (stereo not given) 5.37%
CCOc1ccc(CCNC(=O)Cn2nc(CC)n3c(cc4ccccc43)c2=O)cc1 -4.33%
Cc1cc(=O)n(CC(=O)N2CCN(c3ccccc3F)CC2)c2c1c(C)nn2C -8.01%
COc1cc(C(=O)NCC(c2cccs2)S(=O)(=O)c2cccs2)cc(OC)c1OC (stereo not given) -0.627%
O=C(CCn1c(=O)c2cccn2c2cccnc21)NCc1ccc(F)cc1 -0.181%
Fc1ccc(-c2noc3ncnc(NCc4ccc(Cl)cc4)c23)cc1 0.159%
CCC(Sc1nc(-c2ccccc2F)nc2c1Cc1c(CO)cnc(C)c1O2)C(=O)Nc1cc(C)ccc1C (stereo not given) 7.56%
Cc1ccccc1CN1CCC(CNC(=O)c2c(C)oc3ncnc(N4CCCCC4)c23)CC1 0.693%
COc1ccc(C(=O)NC2(C(F)(F)F)C(=O)Nc3c2c(=O)[nH]c(=O)n3CCc2ccc(OC)c(OC)c2)cc1 (stereo not given) 28.5%
CCOC(=O)C1CCN(S(=O)(=O)c2ccc3c(c2)N(C)C(=O)CC(=O)N3C)CC1 1.43%
COc1cc(C2CC(=O)Oc3c2c(=O)n(C)c2ccccc32)ccc1O (stereo not given) 4.7%
Cc1ccc(Cl)cc1N1CCN(C(=O)c2ccc(CS(=O)(=O)c3ccccc3C)o2)CC1 -18.3%
Cc1ccc(NC(=O)Cn2c(=O)n(CC3CCCO3)c(=O)c3ccccc32)cc1 (stereo not given) -9.85%
CCOC(=O)c1c(C)[nH]c(C)c1S(=O)(=O)N(C)CC(=O)Nc1ccc(C)cc1C 10.7%
O=C(COc1ccccc1)Nc1ccc2nc(SCCOc3ccccc3)sc2c1 5.04%
CC(=O)SCC(Cc1ccccc1)C(=O)NCC(=O)OCc1ccccc1 (stereo not given) 17.5%
Cn1nc(C(=O)Nc2ccc(F)c(Cl)c2)c2c1-c1ccccc1S(=O)(=O)C2 1.92%

outcome, inactive:
CCCCOc1ccc(C(=O)Nc2cccc(-c3nc4cccnc4s3)c2)cc1
COc1ccc(C2=NN(CC(=O)NCCc3ccc(OC)c(OC)c3)C(=O)CC2)cc1
Cc1ccc(NC(=O)NCCc2c(C)nn(C)c2C)cc1Cl
COc1cccc(CNC(=O)c2cc3c(s2)-c2ccccc2OC3)c1
COc1cc2nc(NC(=O)c3ccc(S(=O)(=O)N4CCOCC4)cc3)sc2cc1OC
COc1c(C)cccc1C(=O)Nc1cccc2ccc(C)nc12
COc1ccc(Cn2ccn(Cc3cccc(OC)c3)c(=O)c2=O)cc1
Cc1cn2c(=O)cc(COC(=O)c3ccc(NC(=O)COc4ccccc4F)cc3)nc2s1
CCc1ccccc1NC(=O)c1cnc(N2CCCCC2)c2ccccc12
CN(Cc1ccccc1)C(=O)c1ccc2c(c1)N(Cc1ccccc1Cl)C(=O)c1ccccc1S2
CCOc1ccc(CCNC(=O)C2=C(C)C(=O)OC23CCCCC3)cc1
CCN1C(=O)c2ccccc2S(=O)c2ccc(C(=O)N3CCN(c4cc(Cl)ccc4C)CC3)cc21 (stereo not given)
Cc1cc(C)c2oc(-c3cccc(NC(=O)COc4ccc([N+](=O)[O-])cc4)c3)nc2c1
CCc1ccc(CNC(=O)C2CCN(c3nn4cc(-c5ccc(F)cc5)nc4s3)CC2)cc1
